{"source": "PubChem BioAssay AID1466", "about": "(National Center for Advancing Translational Sciences (NCATS), 2008)", "note": "The campaign covered roughly 200,000 compounds. About 10 (0.005%) were called active. The shares of active, inactive and inconclusive entries below differ from those in the screen. Calls follow the shape of the dose curve; as a rule, active = well fitted inhibition curve with a large enough effect; inconclusive = small, poorly fitted or top-dose-only effect, or effect the other way, or another doubt; inactive = no such curve, though single readings can be large or run the other way. A potency beside an inconclusive call is a rough fit, not a confirmed value. Potency is read from the fitted curve at half-maximal effect; tags tell the direction and shape of the fitted curve.", "data": [{"target": "Lysosomal alpha-glucosidase (Homo sapiens) (UniProt P10253)", "test": "qHTS Assay for Inhibitors of Human alpha-Glucosidase as a Potential Chaperone Treatment of Pompe Disease;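 as to activity change, negative = inhibition: plate controls were uninhibited enzyme wells for no effect and no-enzyme background for full effect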", "conditions": "purified human GAA, 4-MU-alpha-glucoside fluorescence; activity change, negative = inhibition: at 76.9 µM (top of the series) unless noted", "summary_of_the_method": "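Read-out is 4-methylumbelliferone fluorescence (Ex 365/Em 440 nm) after NaOH/glycine stop at pH 10. Enzyme 4 nM, substrate 400 uM, pH 5.0 citrate buffer, 20 min room temperature; AC50 from Hill-equation concentration-response.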", "values": [{"smiles": "COc1ccc(NC(=S)N2CCN(CCN3C(=O)c4cccc5cccc(c45)C3=O)CC2)cc1", "Potency": "inconclusive: 56.2 µM [inhibitor, single point]"}, {"smiles": "CSCCC(NC(=O)C1CCC(C)CC1)C(=O)N1CCN(c2ccccn2)CC1", "note": "(stereo not given)", "Potency": "inconclusive: 7.94 µM [inhibitor, partial curve]"}, {"smiles": "Cc1c(C#N)c2ccccc2n1CC(=O)NCCc1c[nH]c2ccccc12", "activity change, negative = inhibition": "inconclusive: -17.6% [inhibitor] [at 15.4 µM]"}, {"smiles": "COc1ccc(C)cc1NC(=O)CCS(=O)(=O)c1cccc2nonc12", "activity change, negative = inhibition": "inconclusive: -15.1% [inhibitor]"}, {"smiles": "Cc1ccc(/C=c2\\s/c(=C(/C#N)C(=O)N3CCCC3)n(Cc3ccco3)c2=O)s1", "Potency": "inconclusive: 0.891 µM [inhibitor, full curve, poor fit]"}, {"smiles": "CC1=NN(c2ccccc2)C(=O)/C1=C\\C=C1\\N(C)c2ccccc2C1(C)C", "Potency": "inconclusive: 39.8 µM [inhibitor, partial curve]"}, {"smiles": "CC(=O)Nc1ccc(S(=O)(=O)N(c2cccnc2)S(=O)(=O)c2ccc(NC(C)=O)cc2)cc1", "Potency": "inconclusive: 10 µM [inhibitor, full curve]"}, {"smiles": "COc1ccc(-c2ncncc2-c2csc(C)n2)c(O)c1", "Potency": "inconclusive: 12.6 µM [inhibitor, partial curve]"}, {"smiles": "O=C(O)c1c2c(nc3ccc(S(=O)(=O)N4CCC(C(=O)NC5CCCCCC5)CC4)cc13)CCCC2", "Potency": "inconclusive: 0.251 µM [inhibitor, full curve, poor fit]"}, {"smiles": "O=C(N/C(=C\\c1cccc([N+](=O)[O-])c1)C(=O)N1CCCCC1)c1cccs1", "Potency": "inconclusive: 28.2 µM [inhibitor, single point]"}, {"smiles": "Cc1cccc(NC(=S)N/N=C/c2cccn2Cc2ccc(F)cc2)c1", "Potency": "inconclusive: 5.01 µM [inhibitor, partial curve]"}, {"smiles": "O=C(O)c1cc(-c2ccc(O)cc2)on1", "activity change, negative = inhibition": "inconclusive: 19.6% [activator]"}, {"smiles": "COc1cc2c(cc1OC)-c1cc(OCc3ccccc3Cl)nc(=O)n1CC2", "Potency": "inconclusive: 5.62 µM [activator, partial curve]"}, {"smiles": "Cc1nn(C)cc1C1C(C#N)=C(N)N(c2ccc(F)c([N+](=O)[O-])c2)C2=C1C(=O)CCC2", "note": "(stereo not given)", "Potency": "inconclusive: 2.82 µM [inhibitor, partial curve, poor fit]"}, {"smiles": "Cc1cccc(OCC(=O)Nc2cc(S(=O)(=O)N3CCCCC3)ccc2N2CCN(C)CC2)c1", "Potency": "inconclusive: 25.1 µM [inhibitor, partial curve]"}, {"smiles": "Cc1nc2ccc(NC(=O)N3CCOCC3)cc2nc1C", "activity change, negative = inhibition": "inconclusive: 26.9% [activator]"}, {"smiles": "CCOC(=O)C(C(C)=O)c1nc(C)nc2c1nnn2Cc1ccccc1Cl", "note": "(stereo not given)", "activity change, negative = inhibition": "inconclusive: -17.3% [inhibitor]"}, {"smiles": "c1ccc(N2CC3CCc4ccccc4C3=N2)cc1", "note": "(stereo not given)", "Potency": "inconclusive: 44.7 µM [activator, single point]"}, {"smiles": "Cc1nn(C2CCS(=O)(=O)C2)c(Cl)c1/C=C/C(=O)OCC(=O)Nc1ccccc1OC(F)F", "note": "(stereo not given)", "Potency": "inconclusive: 10 µM [inhibitor, partial curve]"}, {"smiles": "Cc1ccc(NC(=O)COC(=O)CN2C(=O)C3CCCCC3C2=O)cc1S(=O)(=O)N1CCOCC1", "note": "(stereo not given)", "Potency": "inconclusive: 50.1 µM [inhibitor, single point]"}, {"smiles": "Cc1c(Br)cc(C(=O)N2CCCC2)c(C)c1C", "Potency": "inconclusive: 50.1 µM [inhibitor, single point]"}, {"smiles": "O=C1c2cc(S(=O)(=O)NCCO)ccc2-c2ccc(S(=O)(=O)NCCO)cc21", "Potency": "inconclusive: 6.31 µM [inhibitor, single point]"}, {"smiles": "Oc1ccccc1-c1nc(/C=C/c2ccccc2)nn1-c1ccccc1", "Potency": "inconclusive: 50.1 µM [inhibitor, single point]"}, {"smiles": "CCN1CCn2c3c(c4cc(Cl)ccc42)CCCC31", "note": "(stereo not given)", "Potency": "inconclusive: 31.6 µM [activator, partial curve]"}, {"smiles": "Cc1ccc(OCCNc2cc(N3CCN(CCO)CC3)ccc2[N+](=O)[O-])cc1C", "Potency": "inconclusive: 39.8 µM [inhibitor, partial curve]"}, {"smiles": "COc1cc(C(=O)OCC(=O)N2CCCCC2C)cc(NC(=O)c2cccs2)c1OC", "note": "(stereo not given)", "Potency": "inconclusive: 15.8 µM [inhibitor, partial curve]"}, {"smiles": "CCCC(=O)Nc1ccc(NC(=S)NC(=O)c2cccs2)cc1", "Potency": "inconclusive: 31.6 µM [inhibitor, single point]"}, {"smiles": "Cc1ccc2nc(-c3ccco3)c(Nc3ccccc3)n2c1", "Potency": "inconclusive: 11.2 µM [inhibitor, single point]"}, {"smiles": "CCn1cc(C(=O)NCc2ccco2)c(=O)c2cc(S(=O)(=O)N3CCC(C)CC3)ccc21", "Potency": "inconclusive: 50.1 µM [inhibitor, single point]"}, {"smiles": "CCOC(=O)c1cnc2nc(N3CCOCC3)nn2c1N", "activity change, negative = inhibition": "inconclusive: -18.2% [inhibitor]"}, {"smiles": "Cc1ccnc(SCCn2c(N3CCN(c4ccccc4)CC3)nc3c2c(=O)[nH]c(=O)n3C)n1", "Potency": "inconclusive: 11.2 µM [inhibitor, full curve]"}, {"smiles": "COc1ccc(-c2csc(NC(=O)c3ccc(OCC(=O)N4CCOCC4)c(OC)c3)n2)cc1", "Potency": "inconclusive: 17.8 µM [inhibitor, partial curve]"}, {"smiles": "N#C/C(=C(/O)COC(=O)c1ccc(Cl)c(S(=O)(=O)N2CCOCC2)c1)c1nc2ccccc2[nH]1", "Potency": "inconclusive: 3.55 µM [inhibitor, full curve]"}, {"smiles": "O=C(COc1ccccc1Cl)N1CCN(c2ccc([N+](=O)[O-])c(N3CCOCC3)c2)CC1", "Potency": "inconclusive: 2.82 µM [inhibitor, full curve, poor fit]"}, {"smiles": "CN(C)CCNc1nc2sc3c(c2c(=O)n1CCc1ccccc1)CCCCC3", "Potency": "inconclusive: 44.7 µM [inhibitor, single point]"}, {"smiles": "CCOC(=O)CNC(=O)CSc1nnc(-c2ccccc2)c(-c2ccccc2)n1", "activity change, negative = inhibition": "inconclusive: 21% [activator]"}, {"smiles": "CCOc1cc(NC(=O)c2ccco2)c(OCC)cc1NC(=O)CCC(=O)NCc1cccnc1", "Potency": "inconclusive: 11.2 µM [inhibitor, single point]"}, {"smiles": "COc1ccnc(Oc2ccc(F)cc2)c1C(=O)N/C=N/OCc1cccc(F)c1", "Potency": "inconclusive: 28.2 µM [inhibitor, single point]"}, {"smiles": "O=C(Cc1cccs1)Nc1ccc(S(=O)(=O)N2CCCC2)cc1", "activity change, negative = inhibition": "inconclusive: 18% [activator]"}, {"smiles": "Cc1ccc(NC(=O)COC(=O)c2ccnn2C)cc1", "Potency": "inconclusive: 11.2 µM [inhibitor, single point]"}, {"smiles": "COc1cccc(CNC(=O)CCC2CCCN(C(=O)c3cccc4c(C)c(C)[nH]c34)C2)c1", "note": "(stereo not given)", "Potency": "inconclusive: 44.7 µM [inhibitor, single point]"}, {"smiles": "O=C(NC1CCC(O)CC1)c1cc(-c2ccco2)nc2ccccc12", "note": "(stereo not given)", "Potency": "inconclusive: 39.8 µM [activator, partial curve]"}, {"smiles": "O=[N+]([O-])c1cc(S(=O)(=O)/N=C(/c2ccccc2)N2CCOCC2)ccc1Cl", "Potency": "inactive"}, {"smiles": "Cc1nc2cc(NCc3nc4ccccc4n3Cc3ccccc3)ccc2n1C", "Potency": "inactive"}, {"smiles": "Cc1ccccc1Cn1nc(C)c(NC(=O)c2cc3nc(-c4ccco4)cc(C(F)(F)F)n3n2)c1C", "Potency": "inconclusive: 50.1 µM [inhibitor, single point]"}, {"smiles": "CCOc1ccc(N(CC(=O)Nc2ccccc2C(=O)N2CCOCC2)S(=O)(=O)c2ccc(F)cc2)cc1", "Potency": "inconclusive: 1.12 µM [inhibitor, full curve, poor fit]"}, {"smiles": "C=CCOC(=O)C1=C(C)NC(SCC(=O)Nc2ccc(C)c(Cl)c2)=C(C#N)C1c1ccco1", "note": "(stereo not given)", "Potency": "inconclusive: 22.4 µM [activator, partial curve]"}, {"smiles": "COCc1c(N)c(C)nc(Cl)c1C#N", "Potency": "inconclusive: 56.2 µM [inhibitor, single point]"}, {"smiles": "CC(=O)c1cc2c(cc1NC(=O)CCC1CCCC1)OCO2", "activity change, negative = inhibition": "inconclusive: 3.66% [activator]"}, {"smiles": "Cc1onc(-c2ccccc2Cl)c1C(=O)Nc1ccc(S(=O)(=O)Nc2nccs2)cc1", "Potency": "inconclusive: 1.12 µM [activator, partial curve, poor fit]"}, {"smiles": "COC(=O)C1=C(C)NC2=C(C(=O)CC(C)(C)C2)C1c1cnn(C)c1C", "note": "(stereo not given)", "Potency": "inconclusive: 17.8 µM [activator, partial curve, poor fit]"}, {"smiles": "O=C(Nc1cccc(-c2cn3cccnc3n2)c1)c1ccco1", "Potency": "inconclusive: 28.2 µM [activator, partial curve]"}, {"smiles": "COc1cccc(N=Cc2c(O)n(-c3cccc(C)n3)c(=O)c3ccccc23)c1", "Potency": "inconclusive: 35.5 µM [inhibitor, partial curve, poor fit]"}, {"smiles": "O=C(COC(=O)c1ccccc1Nc1ccccc1)NCc1ccccc1Cl", "Potency": "inconclusive: 28.2 µM [activator, partial curve]"}, {"smiles": "Cc1cc(NC(=O)Cn2cc([N+](=O)[O-])cn2)n(Cc2ccc(F)cc2)n1", "Potency": "inconclusive: 44.7 µM [inhibitor, single point]"}, {"smiles": "O=C(Nc1nncs1)c1ccccc1NS(=O)(=O)c1cccs1", "Potency": "inconclusive: 28.2 µM [activator, single point]"}, {"smiles": "COc1ccc2nc(NC(=O)CN(C)S(=O)(=O)c3cccs3)sc2c1", "activity change, negative = inhibition": "inconclusive: -19.2% [inhibitor]"}, {"smiles": "CCOCCCNC(=S)N1CCC(C(=O)c2ccc3c(c2)OCCO3)CC1", "activity change, negative = inhibition": "inconclusive: 16.5% [activator]"}, {"smiles": "O=C(Nc1ccc(-c2nc3ncccc3o2)cc1)c1ccc(Br)o1", "Potency": "inconclusive: 31.6 µM [activator, single point]"}, {"smiles": "CC(C)(C)NC(=O)c1cccc(NC(=O)c2cccc(O)c2)c1", "Potency": "inconclusive: 2.82 µM [inhibitor, partial curve, poor fit]"}]}]}
